Reference: the supplement of paper PMC10037445
Several values for one entry are separate records, joined by “and”; a condition that tells them apart may be missing. Equal entries are not always repeated. Whole data set: some 2,900 compounds, median “NF-kB SEAP reporter activity, fold change vs agonist alone” near 0.99, cut for the highest 2% near 2.6. This is one part of the list.

Experiments:
RAW-Dual [1] = test: NF-kB SEAP reporter activity, fold change vs agonist alone; higher = enhanced NF-kB activity; settings: library stock concentration (final ~1000-fold dilution): 10 mM
Method in brief: (§1)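 After 50 nL of library stock was delivered by pin tool to RAW-Dual macrophages (50,000 cells/well, DMEM, 384-well plates), a PRR agonist was added 1 h later and the plates were kept at 37 °C, 5% CO2. Twenty hours later, IRF was read from supernatant by QuantiLuc luminescence and NF-κB by QuantiBlue absorbance at 620 nm. Reporter activity is stated as fold change over agonist-alone wells. Wells with IncuCyte confluency under 70% of agonist controls in both mask sets were counted as cytotoxic.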

RAW-Dual [2] = test: NF-kB SEAP reporter activity, fold change vs agonist alone; cytotoxicity flag (confluency mask): not cytotoxic; higher = enhanced NF-kB activity
Method in brief: as §1

RAW-Dual [3] = test: NF-kB SEAP reporter activity, fold change vs agonist alone; cytotoxicity flag (confluency mask): cytotoxic (confluency <70% of control); higher = enhanced NF-kB activity
Method in brief: as §1

[4] = cytotoxicity flag (confluency mask): not cytotoxic, agonist: Imiquimod (TLR7) […]
[5] = cytotoxicity flag (confluency mask): not cytotoxic, agonist: MPLA (TLR4) […]
[6] = agonist: ODN 1826 (TLR9) 0.5 ug/mL
[7] = agonist: Pam2CSK4 (TLR2/6) 0.1 ug/mL
[8] = agonist: Pam3CSK4 (TLR2/1) 0.1 ug/mL

Cc1nnc(NC(=O)c2nc(S(=O)(=O)Cc3ccc(F)cc3)ncc2Cl)s1
NF-kB SEAP reporter activity (RAW-Dual [1]; [4]): 1.23 | NF-kB SEAP reporter activity (RAW-Dual [1]; [5]): 0.951

Cc1nnc(NC(=O)c2nc(S(=O)(=O)Cc3ccc(F)cc3)ncc2Cl)s1 (library stock concentration (final ~1000-fold dilution): 10 mM)
NF-kB SEAP reporter activity (RAW-Dual [2]; agonist: LPS (TLR4) 0.1 ug/mL): 0.583 | NF-kB SEAP reporter activity (RAW-Dual [2]; [6]): 0.952 | NF-kB SEAP reporter activity (RAW-Dual [2]; [7]): 0.681 | NF-kB SEAP reporter activity (RAW-Dual [2]; [8]): 0.568

Cc1cc(N2CCN(C3CNC(C(=O)N4CCSC4)C3)CC2)n(-c2ccccc2)n1 (stereo not drawn)
NF-kB SEAP reporter activity (RAW-Dual [1]; [5]): 0.979

Cc1cc(N2CCN(C3CNC(C(=O)N4CCSC4)C3)CC2)n(-c2ccccc2)n1 (stereo not drawn) (library stock concentration (final ~1000-fold dilution): 10 mM)
NF-kB SEAP reporter activity (RAW-Dual [2]; agonist: LPS (TLR4) 0.1 ug/mL): 0.83 | NF-kB SEAP reporter activity (RAW-Dual [2]; [6]): 1.06 | NF-kB SEAP reporter activity (RAW-Dual [2]; [7]): 0.973 | NF-kB SEAP reporter activity (RAW-Dual [2]; [8]): 1.12

CC1(C)C=C(CN2C/C(=C\c3ccc(F)cc3)C(=O)/C(=C/c3ccc(F)cc3)C2)C(C)(C)N1O (library stock concentration (final ~1000-fold dilution): 10 mM)
NF-kB SEAP reporter activity (RAW-Dual [2]; agonist: LPS (TLR4) 0.1 ug/mL): 0.893 | NF-kB SEAP reporter activity (RAW-Dual [2]; [6]): 1.22 | NF-kB SEAP reporter activity (RAW-Dual [2]; [7]): 0.842 | NF-kB SEAP reporter activity (RAW-Dual [2]; [8]): 0.609

CC1(C)C=C(CN2C/C(=C\c3ccc(F)cc3)C(=O)/C(=C/c3ccc(F)cc3)C2)C(C)(C)N1O
NF-kB SEAP reporter activity (RAW-Dual [1]; [4]): 1.22 | NF-kB SEAP reporter activity (RAW-Dual [1]; [5]): 1.3

COc1ccc(-c2oc3c(CC=C(C)C)c(O)cc(O)c3c(=O)c2OC2OC(C)C(O)C(O)C2O)cc1 (stereo not drawn) (library stock concentration (final ~1000-fold dilution): 10 mM)
NF-kB SEAP reporter activity (RAW-Dual [3]; agonist: LPS (TLR4) 0.1 ug/mL): 2.22 | NF-kB SEAP reporter activity (RAW-Dual [3]; [6]): 0.553 | NF-kB SEAP reporter activity (RAW-Dual [3]; [7]): 0.251 | NF-kB SEAP reporter activity (RAW-Dual [3]; [8]): 0.457

COc1ccc(-c2oc3c(CC=C(C)C)c(O)cc(O)c3c(=O)c2OC2OC(C)C(O)C(O)C2O)cc1 (stereo not drawn)
NF-kB SEAP reporter activity (RAW-Dual [1]; cytotoxicity flag (confluency mask): cytotoxic (confluency <70% of control), agonist: Imiquimod (TLR7) […]): 1.82 | NF-kB SEAP reporter activity (RAW-Dual [1]; cytotoxicity flag (confluency mask): cytotoxic (confluency <70% of control), agonist: MPLA (TLR4) […]): 1.45

CN(C(=O)CCCOc1ccc2[nH]c(=O)ccc2c1)C1CCCCC1 (library stock concentration (final ~1000-fold dilution): 10 mM)
NF-kB SEAP reporter activity (RAW-Dual [2]; agonist: LPS (TLR4) 0.1 ug/mL): 1.96 | NF-kB SEAP reporter activity (RAW-Dual [2]; [6]): 1.05 | NF-kB SEAP reporter activity (RAW-Dual [2]; [7]): 0.987 | NF-kB SEAP reporter activity (RAW-Dual [2]; [8]): 1.28

CN(C(=O)CCCOc1ccc2[nH]c(=O)ccc2c1)C1CCCCC1
NF-kB SEAP reporter activity (RAW-Dual [1]; [4]): 1.02 | NF-kB SEAP reporter activity (RAW-Dual [1]; [5]): 1.19

NNC(=O)c1ccncc1 (library stock concentration (final ~1000-fold dilution): 10 mM)
NF-kB SEAP reporter activity (RAW-Dual [2]; agonist: LPS (TLR4) 0.1 ug/mL): 1.22 | NF-kB SEAP reporter activity (RAW-Dual [2]; [6]): 1.05 | NF-kB SEAP reporter activity (RAW-Dual [2]; [7]): 1.09 | NF-kB SEAP reporter activity (RAW-Dual [2]; [8]): 1.05

NNC(=O)c1ccncc1
NF-kB SEAP reporter activity (RAW-Dual [1]; [4]): 0.948 | NF-kB SEAP reporter activity (RAW-Dual [1]; [5]): 1.05

Nc1cc(C(F)(F)F)c(-c2nc(N3CCOCC3)nc(N3CCOCC3)n2)cn1
NF-kB SEAP reporter activity (RAW-Dual [1]; [4]): 0.783 | NF-kB SEAP reporter activity (RAW-Dual [1]; [5]): 1.11

Nc1cc(C(F)(F)F)c(-c2nc(N3CCOCC3)nc(N3CCOCC3)n2)cn1 (library stock concentration (final ~1000-fold dilution): 10 mM)
NF-kB SEAP reporter activity (RAW-Dual [2]; agonist: LPS (TLR4) 0.1 ug/mL): 0.943 | NF-kB SEAP reporter activity (RAW-Dual [2]; [6]): 0.711 | NF-kB SEAP reporter activity (RAW-Dual [2]; [7]): 0.402 | NF-kB SEAP reporter activity (RAW-Dual [2]; [8]): 0.503

CCN1CCCC1CNC(=O)c1cc(S(N)(=O)=O)ccc1OC (stereo not drawn) (library stock concentration (final ~1000-fold dilution): 10 mM)
NF-kB SEAP reporter activity (RAW-Dual [2]; agonist: LPS (TLR4) 0.1 ug/mL): 1.32 and 0.858 | NF-kB SEAP reporter activity (RAW-Dual [2]; [6]): 0.962 and 0.982 | NF-kB SEAP reporter activity (RAW-Dual [2]; [7]): 1.2 and 0.846 | NF-kB SEAP reporter activity (RAW-Dual [2]; [8]): 1.12 and 0.924

CCN1CCCC1CNC(=O)c1cc(S(N)(=O)=O)ccc1OC (stereo not drawn)
NF-kB SEAP reporter activity (RAW-Dual [1]; [4]): 1.01

Cl.Nc1c2c(nc3ccccc13)CCCC2 (library stock concentration (final ~1000-fold dilution): 10 mM)
NF-kB SEAP reporter activity (RAW-Dual [2]; agonist: LPS (TLR4) 0.1 ug/mL): 0.972 | NF-kB SEAP reporter activity (RAW-Dual [2]; [6]): 0.271 | NF-kB SEAP reporter activity (RAW-Dual [2]; [7]): 1 | NF-kB SEAP reporter activity (RAW-Dual [2]; [8]): 0.924

Cl.Nc1c2c(nc3ccccc13)CCCC2
NF-kB SEAP reporter activity (RAW-Dual [1]; [4]): 0.964 | NF-kB SEAP reporter activity (RAW-Dual [1]; [5]): 1.03

CN1CCN(c2ccc3nc(-c4c(N)c5c(F)cccc5[nH]c4=O)[nH]c3c2)CC1 (library stock concentration (final ~1000-fold dilution): 10 mM)
NF-kB SEAP reporter activity (RAW-Dual [2]; agonist: LPS (TLR4) 0.1 ug/mL): 0.554 | NF-kB SEAP reporter activity (RAW-Dual [2]; [6]): 0.231 | NF-kB SEAP reporter activity (RAW-Dual [2]; [7]): 0.388 | NF-kB SEAP reporter activity (RAW-Dual [2]; [8]): 0.449

CN1CCN(c2ccc3nc(-c4c(N)c5c(F)cccc5[nH]c4=O)[nH]c3c2)CC1
NF-kB SEAP reporter activity (RAW-Dual [1]; [4]): 0.963 | NF-kB SEAP reporter activity (RAW-Dual [1]; [5]): 0.962

O=C(Oc1coc(CSc2ncccn2)cc1=O)c1ccc([N+](=O)[O-])cc1
NF-kB SEAP reporter activity (RAW-Dual [1]; [4]): 0.717 | NF-kB SEAP reporter activity (RAW-Dual [1]; [5]): 1.01

O=C(Oc1coc(CSc2ncccn2)cc1=O)c1ccc([N+](=O)[O-])cc1 (library stock concentration (final ~1000-fold dilution): 10 mM)
NF-kB SEAP reporter activity (RAW-Dual [2]; agonist: LPS (TLR4) 0.1 ug/mL): 1.26 | NF-kB SEAP reporter activity (RAW-Dual [2]; [6]): 0.944 | NF-kB SEAP reporter activity (RAW-Dual [2]; [7]): 1.19 | NF-kB SEAP reporter activity (RAW-Dual [2]; [8]): 0.981

COc1ccccc1Oc1c(NS(=O)(=O)c2ccc(C(C)(C)C)cc2)nc(-c2ncccn2)nc1OCCO.O
NF-kB SEAP reporter activity (RAW-Dual [1]; [4]): 1.02 | NF-kB SEAP reporter activity (RAW-Dual [1]; [5]): 1.1

COc1ccccc1Oc1c(NS(=O)(=O)c2ccc(C(C)(C)C)cc2)nc(-c2ncccn2)nc1OCCO.O (library stock concentration (final ~1000-fold dilution): 10 mM)
NF-kB SEAP reporter activity (RAW-Dual [2]; agonist: LPS (TLR4) 0.1 ug/mL): 1.15 | NF-kB SEAP reporter activity (RAW-Dual [2]; [6]): 1.01 | NF-kB SEAP reporter activity (RAW-Dual [2]; [7]): 1.06 | NF-kB SEAP reporter activity (RAW-Dual [2]; [8]): 1.1

CN(Cc1cnc2nc(N)nc(N)c2n1)c1ccc(C(=O)NC(CCC(=O)O)C(=O)O)cc1 (stereo not drawn) (library stock concentration (final ~1000-fold dilution): 10 mM water)
NF-kB SEAP reporter activity (RAW-Dual [2]; agonist: LPS (TLR4) 0.1 ug/mL): 1.52 | NF-kB SEAP reporter activity (RAW-Dual [2]; [6]): 0.931 | NF-kB SEAP reporter activity (RAW-Dual [2]; [7]): 0.514 | NF-kB SEAP reporter activity (RAW-Dual [2]; [8]): 0.726

CN(Cc1cnc2nc(N)nc(N)c2n1)c1ccc(C(=O)NC(CCC(=O)O)C(=O)O)cc1 (stereo not drawn) (library stock concentration (final ~1000-fold dilution): 10 mM)
NF-kB SEAP reporter activity (RAW-Dual [3]; agonist: LPS (TLR4) 0.1 ug/mL): 1.23 | NF-kB SEAP reporter activity (RAW-Dual [3]; [6]): 0.724 | NF-kB SEAP reporter activity (RAW-Dual [3]; [7]): 0.558 | NF-kB SEAP reporter activity (RAW-Dual [3]; [8]): 0.342
